PubChem BioAssay AID504332 (National Center for Advancing Translational Sciences (NCATS), 2011)
Several values for one entry are separate records, joined by “and”; a condition that tells them apart may be missing. Equal values may be shown once. Hit rate of the full screen: of about 350,000 compounds, about 31,000 (8.9%) were called active. Inconclusive results, whose numbers are uncertain, are shown with a selection of clear calls. The call rests on the fitted dose curve; in most records, active means well fitted inhibition curve with a large enough effect; inconclusive means small, poorly fitted or top-dose-only effect; inactive means no such curve, though single readings can be large or run the other way. Potencies of inconclusive entries are doubtful fits and often do not repeat. Some structures have more than one record in an assay (separate samples or runs), and their calls can disagree.

The molecules below were run against Histone-lysine N-methyltransferase EHMT2 (Homo sapiens) (UniProt Q96KQ7) (assay: qHTS Assay for Inhibitors of Histone Lysine Methyltransferase G9a). Settings: G9a H3K9 monomethylation, AlphaScreen, 2 h; activity, negative = inhibition: at 59 µM (top of the series) unless noted.
Summary of the method: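 Chemiluminescent proximity detection of H3K9 monomethylation, read after 10 min bead incubation in the dark. Reaction: 20 nM G9a, 500 nM biotin-H3K9 peptide, 20 uM SAM cofactor, 2 h, room temperature, following 15 min enzyme-compound preincubation.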
Further: nearly all actives have a fitted effect of over 75% in size.
On the % scale 0 is the no-effect control and ±100 the full control effect; potency means the concentration at half of the fitted maximal effect; tags describe the fitted curve by direction and shape.

Sequence of UniProt Q96KQ7 (Q96KQ7 whole entry, looked up): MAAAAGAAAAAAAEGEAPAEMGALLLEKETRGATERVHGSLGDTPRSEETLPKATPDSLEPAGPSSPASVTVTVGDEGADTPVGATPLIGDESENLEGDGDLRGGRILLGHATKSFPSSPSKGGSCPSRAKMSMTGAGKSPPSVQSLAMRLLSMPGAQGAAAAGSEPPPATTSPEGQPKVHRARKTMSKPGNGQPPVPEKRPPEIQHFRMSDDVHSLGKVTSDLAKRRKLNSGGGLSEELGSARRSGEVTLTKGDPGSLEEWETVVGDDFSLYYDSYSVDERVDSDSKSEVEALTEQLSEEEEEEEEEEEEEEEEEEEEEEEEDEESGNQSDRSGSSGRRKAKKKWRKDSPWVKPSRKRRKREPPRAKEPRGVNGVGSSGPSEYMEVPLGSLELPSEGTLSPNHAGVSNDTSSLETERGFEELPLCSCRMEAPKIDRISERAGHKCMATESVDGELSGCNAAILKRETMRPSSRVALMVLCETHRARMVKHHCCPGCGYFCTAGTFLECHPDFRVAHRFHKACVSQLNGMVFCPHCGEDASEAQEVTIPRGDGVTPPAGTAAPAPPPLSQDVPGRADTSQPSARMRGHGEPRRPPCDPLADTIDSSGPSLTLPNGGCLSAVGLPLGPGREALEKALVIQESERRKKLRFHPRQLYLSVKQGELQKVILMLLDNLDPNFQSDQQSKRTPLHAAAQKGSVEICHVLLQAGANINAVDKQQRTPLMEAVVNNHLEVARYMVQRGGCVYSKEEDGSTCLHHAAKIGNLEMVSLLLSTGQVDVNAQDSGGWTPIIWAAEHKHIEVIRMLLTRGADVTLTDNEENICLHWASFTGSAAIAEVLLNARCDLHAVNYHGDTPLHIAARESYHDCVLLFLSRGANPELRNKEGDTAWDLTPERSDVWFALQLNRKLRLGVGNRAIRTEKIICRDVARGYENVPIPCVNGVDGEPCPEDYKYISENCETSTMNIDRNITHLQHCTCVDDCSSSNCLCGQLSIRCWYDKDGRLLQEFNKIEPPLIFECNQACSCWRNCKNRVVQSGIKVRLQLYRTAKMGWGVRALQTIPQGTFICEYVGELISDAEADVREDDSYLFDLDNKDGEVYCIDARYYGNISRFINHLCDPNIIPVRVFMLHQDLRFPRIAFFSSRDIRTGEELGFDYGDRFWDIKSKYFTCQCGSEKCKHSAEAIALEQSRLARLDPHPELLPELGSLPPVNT

SMILES	Potency	activity, negative = inhibition
Cc1cccc(CS(=O)(=O)CC2Nc3ccc(C(=O)NCc4ccccc4Cl)cc3NC2=O)c1 (centres undefined)	inconclusive: 14.1 µM [inhibitor, partial curve, poor fit]	
COc1ccc(NS(=O)(=O)c2cccc(C(=O)N(C)Cc3ccc(SC)cc3)c2)cc1		inactive: -12% [at 0.501 µM]
CCOc1ccc(C2c3[nH]c4ccccc4c3C[C@H]3C(=O)N(C4CCN(Cc5ccccc5)CC4)CC(=O)N23)cc1OC (some centres undefined)	inconclusive: 39.8 µM [inhibitor, partial curve]	
Cc1nc2cc(Nc3ccncc3)ccc2s1	inconclusive: 89.1 µM [inhibitor, partial curve, poor fit]	
O=C(CSc1ncnc2ccccc12)c1ccco1	active: 12.6 µM	
O=C(NCCc1c[nH]c2ccccc12)Nc1ccccc1C(F)(F)F	inactive	
COc1ccc(Cc2nnc(NC(=O)c3c(-c4ccccc4)noc3C)s2)cc1	inconclusive: 5.01 µM [inhibitor, partial curve, poor fit]	
Cc1ccc(NC(=O)Cn2cc(C(F)(F)F)cc(Cl)c2=O)cc1S(=O)(=O)N1CCCCC1	active: 50.1 µM	
COc1ccc(OC)c(C2C(C(=O)c3ccco3)=C(O)C(=O)N2Cc2cccnc2)c1 (centres undefined)	inconclusive: 89.1 µM [inhibitor, single point]	
CN(C(=O)c1nc(-c2ccccc2)n(-c2ccccc2)n1)C1CCS(=O)(=O)C1 (centres undefined)	inactive	
Cc1ccc(NC(=O)Cc2nc(COC(=O)C(C)NS(=O)(=O)c3ccc(C)cc3)cs2)cc1 (centres undefined)		inactive: -6.75% [at 12.7 µM]
COc1ccc([N+](=O)[O-])cc1NC(=O)C1C2C=CC(C2)C1C(=O)O (centres undefined)	inconclusive: 79.4 µM [inhibitor, single point]	
CCCn1c2ccccc2c2cnn(CC(=O)N(CCCOC(C)C)Cc3ccco3)c(=O)c21	inconclusive: 28.2 µM [inhibitor, partial curve, poor fit]	
COc1cc(C(=O)Nc2ccc(OCc3cc(=O)n4ccc(C)cc4n3)cc2)cc(OC)c1OC	inactive	
CCOC(=O)C1=C(Cc2ccc(Cl)cc2)C(=O)c2ccccc2C1=O	active: 2.51 µM	
O=C(Nc1ccccc1-c1ccccc1)c1cc(C(F)(F)F)cc(C(F)(F)F)c1	inactive	
CCCCn1c(N)c(N(Cc2ccccc2OC)C(=O)CN2C(=O)NC(C)(c3ccccc3)C2=O)c(=O)[nH]c1=O (centres undefined)	active: 5.62 µM	
CCN(CC)c1ccc(/C=N\NC(N)=O)cc1	inconclusive: 39.8 µM [inhibitor, single point]	
COCCn1c(C)cc(C(=O)CSc2nc3ccccc3s2)c1C	inconclusive: 39.8 µM [inhibitor, single point]	
Cc1cccc(N2CCN(S(=O)(=O)c3c(C)[nH]c(=O)[nH]c3=O)CC2)c1C	inactive and active: 39.8 µM	
N#CC1=C2SCN(Cc3ccco3)CN2C(=O)CC1c1c(F)cccc1Cl (centres undefined)	active: 1.58 µM	
CN(C)CCNC(=O)C1CC(=O)N(c2ccc(F)c(Cl)c2)C1 (centres undefined)	inconclusive: 79.4 µM [inhibitor, single point]	

SMILES	Potency	activity, negative = inhibition
CCCCn1c(N)c(N(CCC(C)C)C(=O)C2=NN(c3ccccc3)C(=O)CC2)c(=O)[nH]c1=O	inconclusive: 0.398 µM [inhibitor, partial curve, poor fit]	
O=C(O)Cc1c(C(=O)O)[nH]c2ccc(C(=O)O)cc12	active: 50.1 µM	
COc1ccccc1N=C(C)C1=C(O)CC(c2ccccc2)CC1=O (centres undefined)	active: 50.1 µM	
CC1=C(C(=O)Nc2ccc(Cl)cc2)C(c2ccncc2)C(C#N)=C(SCC(N)=O)N1 (centres undefined)	inconclusive: 12.6 µM [inhibitor, partial curve, poor fit]	
CN1Cc2c(N3CCOCC3)nc3sc(C(=O)c4ccc(Br)cc4)c(N)c3c2CC1(C)C	active: 44.7 µM	
O=C(Cn1c(=O)n(Cc2ccc(F)cc2)c(=O)c2sc3ccccc3c21)NCc1ccccc1Cl	inactive	
Cc1ccc(C(=O)NC2CCCCC2)cc1S(=O)(=O)N1CCCC1	inactive	
O=C(N/C=N/O)C(c1ccccc1)c1ncc(C(F)(F)F)cc1Cl (centres undefined)	inactive	
COc1ccc(N2CCN(C(CNS(=O)(=O)c3c(C)cc(C)cc3C)c3ccco3)CC2)cc1 (centres undefined)	active: 7.08 µM	
COCCn1c(C)cc(/C=C2/NC(=O)N(c3cccc(Cl)c3)C2=O)c1C	active: 50.1 µM	
CCOC(=O)N1CCN(CC(O)COCc2ccc(Cl)cc2)CC1 (centres undefined)	inconclusive: 2.82 µM [inhibitor, single point]	
O=C(O)c1cccc(N/N=C/c2cc(Br)cc(Br)c2O)c1	inconclusive: 17.8 µM [inhibitor, partial curve, poor fit]	
N/C(=N\OC(=O)/C=C/c1ccccc1Cl)c1cccnc1	inactive	
O=C(Nc1ccc2oc(-c3cccc(Cl)c3Cl)nc2c1)c1cccc(Br)c1	inconclusive: 31.6 µM [inhibitor, single point]	
Cc1ccc(Nc2c(-c3ccc(N4CCOCC4)cc3)nc3cnccn23)cc1	inconclusive: 79.4 µM [inhibitor, single point]	
COc1ccc(/C=C/CN2CCCC(CO)(Cc3cccc(Cl)c3)C2)cc1 (centres undefined)	inconclusive: 39.8 µM [inhibitor, partial curve, poor fit]	
CCC(=O)NNC(=O)CCC(=O)Nc1cccc(Cl)c1C	inconclusive: 70.8 µM [inhibitor, single point]	
CCOc1ccc(-c2csc(Cn3c(CN4CCN(C)CC4)nc4ccccc4c3=O)n2)cc1	active: 22.4 µM	
O=C(c1cccnc1)N1CCN(Cc2ccccc2Br)CC1	inconclusive: 2.82 µM [inhibitor, partial curve, poor fit]	
COc1ccccc1NC(=O)C1=C(C)Nc2nc(SCc3ccccc3Cl)nn2C1c1ccncc1 (centres undefined)	inactive	
CC(=O)c1c(C)oc2ccc(N(C(=O)c3ccncc3)S(=O)(=O)c3ccc(C)cc3C)cc12	inconclusive: 17.8 µM [inhibitor, partial curve]	
Cc1ccccc1-c1cc(=O)c2c(O)cccc2o1		inactive: 21.5% [at 12.7 µM]
